# Source: PubChem BioAssay AID1347430 (National Center for Advancing Translational Sciences (NCATS), 2020)
# Hit rate of the full screen: of about 91,000 compounds, about 130 (0.14%) were called active. The shares of active, inactive and inconclusive entries below differ from those in the screen. The call rests on the fitted dose curve; in most records, active means well fitted inhibition curve with a large enough effect; inconclusive means small, poorly fitted or top-dose-only effect; inactive means flat fitted curve, though single readings scatter. A potency beside an inconclusive call is a rough fit, not a confirmed value.
# Tested on: Uracil-DNA glycosylase
# Assay: Primary qHTS assay for inhibitors of Activation Induced Cytidine Deaminase (AID): UDG Counterscreen signal; further: nearly all actives have a fitted effect of over 65% in size
# Settings: FRET deamination/UDG coupled assay, UDG read, 4 h; series mostly up to 115 µM
# Potency means the concentration at half of the fitted maximal effect; tags describe the fitted curve by direction and shape.
row,SMILES,Potency
1,Cc1cc2oc(C(=O)Nc3cccc(Cl)c3C)cc(=O)c2cc1C,inactive
2,CN(C)C/C=C(/c1ccc(Br)cc1)c1cccnc1,inactive
3,c1ccc2c[n+](Cc3cccc4ccccc34)ccc2c1,inactive
4,CC(=O)N1CCC2(CC1)OC(=O)C(C)=C2C(=O)NCc1ccc(Cl)cc1,"inconclusive: 70.8 µM [inhibitor, single point]"
5,COC(=O)c1ccc(Cl)cc1NC(=O)N(C)CCc1c(C)nn(C)c1C,"inconclusive: 79.4 µM [inhibitor, partial curve]"
6,COc1cc(NC(=O)C(CC(C)C)NS(=O)(=O)c2ccc3c(c2)oc(=O)n3C)c(C(=O)O)cc1OC (stereo not drawn),"inconclusive: 89.1 µM [inhibitor, single point]"
7,Cc1ccc(-c2csc(CCn3nc(C)c4c(C(F)(F)F)cc(=O)[nH]c43)n2)cc1,inactive
8,CC1CCCCN1S(=O)(=O)c1cc2c3c(c1)CC(=O)N3CCC2 (stereo not drawn),active: 89.1 µM
9,Cc1oc(-c2cccc(Cl)c2)nc1CN1CCCC(C(=O)NCc2ccc(Cl)cc2)C1 (stereo not drawn),"inconclusive: 89.1 µM [inhibitor, partial curve, poor fit]"
10,COc1cc(OC)cc(C(=O)Nc2cccc(-c3cn4cccnc4n3)c2)c1,inactive
11,COc1cccc(CNC(=O)COCc2cc(-c3ccc4c(c3)OCO4)on2)c1,"inconclusive: 89.1 µM [inhibitor, partial curve, poor fit]"
12,N#C/C(=C\c1ccccc1)C(=O)Nc1sc2c(c1C(N)=O)CCC2,"inconclusive: 79.4 µM [inhibitor, single point]"
13,C(#Cc1ccc(C#CC[N+]2(Cc3ccccc3)CCCCC2)cc1)C[N+]1(Cc2ccccc2)CCCCC1,inactive
14,CCOc1ccc(/C=C(\C#N)C(=O)Nc2sc3c(c2C(=O)OC)C(C(=O)OC)CC3)cc1OC (stereo not drawn),"inconclusive: 100 µM [inhibitor, single point]"
15,CN(C(=O)CSc1nc2ccccc2n1CC(=O)N(C)c1ccc(F)cc1)c1ccccc1,"inconclusive: 89.1 µM [inhibitor, partial curve, poor fit]"
16,CCN(c1ccccc1)S(=O)(=O)c1ccc(F)c(C(=O)Nc2ccc(C)cc2)c1,"inconclusive: 44.7 µM [inhibitor, partial curve, poor fit]"
17,Cc1ccc(Nc2nnc(-c3ccc(C)c(S(=O)(=O)N4CCCCC4)c3)c3ccccc23)cc1,"inconclusive: 89.1 µM [inhibitor, single point]"
18,Cc1nn(-c2ccccc2)c(-n2cccc2)c1C(=O)NCc1ccccc1Cl,"inconclusive: 56.2 µM [inhibitor, partial curve, poor fit]"
